Measured values taken from the supplement of paper PMC3334620.
The full ranking holds about 33,000 sequences; the median of “E-score (-0.5 to 0.5)” is about -0.016, and the highest 2% start at about 0.32. Some of the results follow.

target: T1, Stp1 (UniProt B3LFK1); assay: PBM E-score (8-mer binding enrichment) (E-score (-0.5 to 0.5)); higher = stronger / more preferred TF binding; most listed sequences are background and not binding sites; details: protein concentration: 200 nM; construct: GST-full length
T1 sequence: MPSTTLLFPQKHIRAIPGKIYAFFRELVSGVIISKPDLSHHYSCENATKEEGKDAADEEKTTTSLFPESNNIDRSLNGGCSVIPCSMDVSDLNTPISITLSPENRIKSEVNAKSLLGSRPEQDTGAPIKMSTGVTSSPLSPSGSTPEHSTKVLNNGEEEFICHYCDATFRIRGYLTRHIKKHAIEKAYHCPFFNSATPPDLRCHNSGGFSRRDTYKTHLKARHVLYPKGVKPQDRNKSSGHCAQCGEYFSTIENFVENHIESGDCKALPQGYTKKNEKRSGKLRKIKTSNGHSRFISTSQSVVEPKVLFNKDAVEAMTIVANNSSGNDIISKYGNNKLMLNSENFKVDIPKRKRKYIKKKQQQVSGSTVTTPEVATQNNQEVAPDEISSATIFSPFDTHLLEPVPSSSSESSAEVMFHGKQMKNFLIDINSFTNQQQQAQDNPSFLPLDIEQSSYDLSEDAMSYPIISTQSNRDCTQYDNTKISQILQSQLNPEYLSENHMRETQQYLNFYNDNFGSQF
Outline: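 GST-tagged yeast TFs (full-length or DNA-binding domain) were made by PURExpress in vitro transcription/translation and applied at about 100-200 nM to universal all-10-mer Agilent arrays. The arrays were made double-stranded by primer extension, on fresh or once-stripped slides. Bound protein was detected with fluorescent anti-GST, and scans were normalised with masliner. Each ungapped eight-base word, pooled with its reverse complement, received an E-score (modified Wilcoxon-Mann-Whitney statistic) from the Universal PBM Analysis Suite.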

Sequence	PBM E-score
GGATGCAC	-0.0258
AGCGACAT	-0.122
CCGAACCG	-0.14
ATTATACA	0.138
CAAGGAGA	-0.115
AAAACGAT	-0.0519
CAAATCGC	-0.0312
GAGGGACC	-0.281
CTTAAGTC	-0.195
ACGCTCGG	0.0606
AACGCCCT	0.203
CGGAGGAG	-0.273
CAACAGCG	0.0186
ACATGCTC	-0.116
TAATGGGA	-0.18
ATATAAGC	0.226
CCGACGCG	0.139
TAGCAGCA	-0.0684
TCATCCGA	0.0548
CCTCCAAC	-0.231
CACAGAAG	-0.0547
ACGATATA	0.0856
CACGAAAC	0.116
GGCAAAAC	0.254
CCGTGCCA	0.35

Sequence	PBM E-score
CCTAAGCG	-0.0546
GCTGGTGA	-0.124
GCGACCTA	-0.0105
AGGACAAC	-0.0781
GCAATACC	-0.0888
AGTCCAAG	-0.0202
TCTATTAA	0.107
GGAAAGAC	-0.139
ATAAAAGG	-0.0598
GAAATTTA	0.12
ACTATGAG	-0.0844
CGATTGAG	-0.0836
GAATTATA	0.0753
CTACTACA	0.211
ACACCCCA	-0.171
CAACAGTG	0.0314
TCTGTTCA	-0.0375
CTATAGGA	-0.0284
ATCCTCCA	-0.024
ACGACTAC	0.0203
GCTGTGAC	0.0353
ACCACGGC	0.327
CGTTCGAG	0.0335
CGACGACA	-0.0356
AGGAGTCA	-0.112

Sequence	PBM E-score
AATGTCGA	0.147
GGAAGAAC	-0.00337
AGTGTCGA	-0.0803
ATCTCGGA	0.0138
GACTTATA	-0.0235
GCATTGTA	0.0479
ACACTACG	0.0872
CAATTGTC	-0.0427
CCGCCTCG	0.298
AGGTTGTA	0.161
ACCCACGG	-0.0019
ACGTGGCA	0.152
AAATGCGA	0.0669
CGGGCTTC	-0.227
ACAGGAAC	-0.117
TTCATAAA	0.167
GGCGACGA	0.123
ACATTTTA	0.254
GCGTTCGA	0.133
CGGATGGC	0.14
CTAGATTC	-0.0891
ATCGAACA	-0.00011
CTAACTCA	-0.0903
ACCAAAGG	-0.131
CGTTTTAA	0.0794

Sequence	PBM E-score
GCGCGGAC	0.256
GTAATTTA	0.101
ACCTGAAT	0.0465
CCCTGGTC	-0.41
CCCAATGC	-0.216
AAAGTGAA	0.0274
ACGAATTA	0.144
AGACGGAA	0.106
TCCCTAAA	0.019
GAGTATAA	0.231
AACGGTTG	-0.12
CTACTCAC	0.074
ATTCGGGC	-0.103
ACTCCACA	-0.0355
AACCCGAC	-0.188
CAATCTCC	-0.186
CCTGGTGA	-0.157
AAGTGACT	-0.0651
CGAAGCGA	-0.0584
AAACTCAA	0.0822
ATGTTTCC	0.00054
AGAGGGAC	-0.151
CGTGGGTC	-0.153
ACAGCAGT	-0.0354
CGGGCGGC	0.31

Sequence	PBM E-score
GCCAGAGC	-0.271
CCCGCCAA	-0.197
AGCCCAAA	0.0273
GGCGCAAA	0.406
ACAAGTTA	0.0617
ACGTCTGC	0.0175
AAAAGACG	0.0808
AGGACGCG	-0.0834
CACGACCG	-0.0682
AGCTCGCG	0.0554
ACGCCGAG	0.0836
GAGTCGGA	-0.152
GGTGCAAC	-0.234
ATTGTTAC	0.134
AGAGCCGG	-0.0632
CGGTTCGA	0.0995
TAAGGAAA	0.175
ATTATCTC	0.0957
AGCTTATG	0.0648
CAGTAGAG	-0.155
CTGGCAAG	-0.0767
GAATTCTC	0.0702
AGAGCCCA	0.00925
GATCCACC	-0.21
AACGTGGT	-0.102

Sequence	PBM E-score
ATACTGGC	-0.284
AGTTGTGC	-0.012
CCATCGGG	-0.196
AGGTGCAG	-0.144
CCGATTCC	-0.0347
GGCTGGTA	-0.184
CCAGTATA	-0.0421
ATCCATAG	-0.218
CCTTAAAA	-0.0621
AGTCTATG	-0.175
TATGACGA	0.0504
CTGCGGTC	-0.0629
ATCAAGCA	-0.0533
GAAAGCCC	-0.0238
ATGAAGAA	0.165
GCTCATAC	0.0921
TGAGTACA	0.119
ATAAGCAA	-0.0611
GAACCATA	0.023
CCTTGAAA	0.064
ATGCGGTG	-0.103
AAGGCACT	0.323
TGAGACAA	-0.0493
CTCATTAA	0.026
TCATTGGA	0.0619

Sequence	PBM E-score
CCATTGCG	-0.0132
CCCTATGA	-0.0215
GTGCGAGA	0.0119
CGGTCGAG	-0.133
CTCTCTCC	-0.242
CTCAGTTA	0.0571
CCGGTAGC	-0.306
AATTAGTA	0.209
AGTCTCTA	-0.289
CGAAGAAC	0.0715
GCAGGAAA	0.00509
TGATGAAA	0.0834
GAGGACGA	0.0252
ACACCTCG	0.0334
ATTGCACG	0.184
CTCCCTGC	-0.293
ATAGTATA	0.0334
AATCGTAC	0.12
AATAGGAC	-0.208
GCTTTATA	-0.00101
GACCGACA	-0.0307
GCAATAAC	0.0245
